# The list shows a part of the results.
# Tests used:
# Assay in all cases: glycan array binding signal (z-score within array); higher = stronger binding
# Conditions in all cases: glycan notation: IUPAC condensed, linker removed
# [1] = target: Gal(b1-3)GlcNAc(b1-2)Man(a1-3)[Gal(b1-3)GlcNAc(b1-2)Man(a1-6)]Man(b1-4)GlcNAc(b1-4)[Fuc(a1-6)]GlcNAc
# Outline: (§1)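 From the Consortium for Functional Glycomics database, 3228 arrays were curated, keeping only those whose protein sequence was available. Binding is given as a within-array Z-score averaged across arrays sharing a protein sequence and across linkers. Negative Z-scores can be read as non-binding.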
# [2] = target: Gal(b1-3)GlcNAc(b1-2)Man(a1-3)[GlcNAc(b1-4)][Gal(b1-3)GlcNAc(b1-2)Man(a1-6)]Man(b1-4)GlcNAc(b1-4)GlcNAc
# Outline: as §1
# [3] = target: Gal(b1-3)GlcNAc(b1-2)[Gal(b1-3)GlcNAc(b1-6)]Man(a1-6)[Gal(b1-3)GlcNAc(b1-2)Man(a1-3)]Man(b1-4)GlcNAc(b1-4)GlcNAc
# Outline: as §1
# [4] = target: Gal(b1-3)GlcNAc(b1-3)Gal(b1-3)GlcNAc
# Outline: as §1
# [5] = target: Gal(b1-3)GlcNAc(b1-3)Gal(b1-4)Glc
# Outline: as §1
# [6] = target: Gal(b1-3)GlcNAc(b1-3)Gal(b1-4)GlcNAc
# Outline: as §1
# [7] = target: Gal(b1-3)GlcNAc(b1-3)Gal(b1-4)GlcNAc(b1-2)Man(a1-3)[Gal(b1-3)GlcNAc(b1-3)Gal(b1-4)GlcNAc(b1-2)Man(a1-6)]Man(b1-4)GlcNAc(b1-4)GlcNAc
# Outline: as §1
# [8] = target: Gal(b1-3)GlcNAc(b1-3)Gal(b1-4)GlcNAc(b1-2)[Gal(b1-3)GlcNAc(b1-3)Gal(b1-4)GlcNAc(b1-6)]Man(a1-6)[Gal(b1-3)GlcNAc(b1-3)Gal(b1-4)GlcNAc(b1-2)Man(a1-3)]Man(b1-4)GlcNAc(b1-4)[Fuc(a1-6)]GlcNAc
# Outline: as §1
# [9] = target: Gal(b1-3)GlcNAc(b1-3)Gal(b1-4)GlcNAc(b1-3)Gal(b1-4)GlcNAc(b1-2)[Gal(b1-3)GlcNAc(b1-3)Gal(b1-4)GlcNAc(b1-3)Gal(b1-4)GlcNAc(b1-6)]Man(a1-6)[Gal(b1-3)GlcNAc(b1-3)Gal(b1-4)GlcNAc(b1-3)Gal(b1-4)GlcNAc(b1-2)Man(a1-3)]Man(b1-4)GlcNAc(b1-4)[Fuc(a1-6)]GlcNAc
# Outline: as §1
# [10] = target: Gal(b1-3)GlcNAc(b1-3)Gal(b1-4)GlcNAc(b1-6)[Gal(b1-3)GlcNAc(b1-3)]Gal(b1-4)Glc
# Outline: as §1
# [11] = target: Gal(b1-3)GlcNAc(b1-3)Gal(b1-4)[Fuc(a1-3)]GlcNAc
# Outline: as §1
# [12] = target: Gal(b1-3)GlcNAc(b1-3)Gal(b1-4)[Fuc(a1-3)]GlcNAc(b1-6)[Gal(b1-3)GlcNAc(b1-3)]Gal(b1-4)Glc
# Outline: as §1
# [13] = target: Gal(b1-3)GlcNAc(b1-3)GalNAc
# Outline: as §1
# [14] = target: Gal(b1-3)GlcNAc(b1-6)Gal(b1-4)GlcNAc
# Outline: as §1
# [15] = target: Gal(b1-3)GlcNAc(b1-6)GalNAc
# Outline: as §1
# [16] = target: Gal(b1-3)GlcNAc(b1-6)[Gal(b1-3)]GalNAc
# Outline: as §1
# [17] = target: Gal(b1-3)GlcNAc6S
# Outline: as §1
# [18] = target: Gal(b1-3)[Fuc(a1-4)]GlcNAc
# Outline: as §1
# [19] = target: Gal(b1-3)[Fuc(a1-4)]GlcNAc(b1-2)Man
# Outline: as §1
# [20] = target: Gal(b1-3)[Fuc(a1-4)]GlcNAc(b1-2)Man(a1-3)[Gal(b1-3)[Fuc(a1-4)]GlcNAc(b1-2)Man(a1-6)]Man(b1-4)GlcNAc(b1-4)[Fuc(a1-6)]GlcNAc
# Outline: as §1
# [21] = target: Gal(b1-3)[Fuc(a1-4)]GlcNAc(b1-3)Gal(b1-3)[Fuc(a1-4)]GlcNAc
# Outline: as §1
# [22] = target: Gal(b1-3)[Fuc(a1-4)]GlcNAc(b1-3)Gal(b1-4)[Fuc(a1-3)]GlcNAc
# Outline: as §1
# [23] = target: Gal(b1-3)[Fuc(a1-4)]GlcNAc(b1-6)GalNAc
# Outline: as §1
# [24] = target: Gal(b1-3)[GlcNAc(b1-6)]GalNAc
# Outline: as §1
# [25] = target: Gal(b1-3)[Neu5Ac(a2-6)]GalNAc
# Outline: as §1
# [26] = target: Gal(b1-3)[Neu5Ac(a2-6)]GlcNAc(b1-4)Gal(b1-4)Glc
# Outline: as §1
# [27] = target: Gal(b1-3)[Neu5Ac(b2-6)]GalNAc
# Outline: as §1
# [28] = target: Gal(b1-4)Gal
# Outline: as §1
# [29] = target: Gal(b1-4)GalNAc(a1-3)[Fuc(a1-2)]Gal(b1-4)GlcNAc
# Outline: as §1
# [30] = target: Gal(b1-4)GalNAc(b1-3)[Fuc(a1-2)]Gal(b1-4)GlcNAc
# Outline: as §1
# [31] = target: Gal(b1-4)Glc
# Outline: as §1
# [32] = target: Gal(b1-4)Glc6S
# Outline: as §1
# [33] = target: Gal(b1-4)GlcNAc
# Outline: as §1
# [34] = target: Gal(b1-4)GlcNAc(a1-6)Gal(b1-4)GlcNAc
# Outline: as §1
# [35] = target: Gal(b1-4)GlcNAc(b1-2)Man
# Outline: as §1
# [36] = target: Gal(b1-4)GlcNAc(b1-2)Man(a1-3)Man(b1-4)GlcNAc(b1-4)GlcNAc
# Outline: as §1
# [37] = target: Gal(b1-4)GlcNAc(b1-2)Man(a1-3)[Gal(b1-4)GlcNAc(b1-2)Man(a1-6)]Man(b1-4)GlcNAc(b1-4)GlcNAc
# Outline: as §1
binder,measurement,setting,value
Na-CTL-1 (Necator americanus) (protein) MQRSFLLLLVVLAGAWAVNTTIPLKLMGGFTPMKYQCVGRVSDIWADVLFLIESSDMITKSGFRQVIAFITATTKKMTIGQDEKQTRVGFITYGEEAKLIYDLDHWRSTEKLSDLVQKIPYVKSSGTNIAAAIALANKVFNSPTHRPNVPKVMVIVANGLKKGSQNPIPVATAFKDFGGIIITIEYTQYDNIQVPILKKIASEGYNIRSNDEDFSVRTLTNMLLQANCFCPDHYVPFRVNNPEFGCFVTAKIPSMWRDAAEMCRAVEEGKLVKVENEEKAAFIMKLVGPKKEAWIGLRYYGNKFQWTDGTKLNADDFNLWPEDIKELNGPHCVSMYQDQKDKKYYWRAGKCLEDMRYVCEVQPCSASNYCSEPVFMYRQKHRALLPAPPPPPN,glycan array binding signal (z-score),[1],-0.447
same,glycan array binding signal (z-score),[2],0.605
same,glycan array binding signal (z-score),[3],-0.149
same,glycan array binding signal (z-score),[4],-0.262
same,glycan array binding signal (z-score),[5],0.182
same,glycan array binding signal (z-score),[6],-0.383
same,glycan array binding signal (z-score),[7],-0.217
same,glycan array binding signal (z-score),[8],-0.231
same,glycan array binding signal (z-score),[9],1.66
same,glycan array binding signal (z-score),[10],-0.326
same,glycan array binding signal (z-score),[11],-0.53
same,glycan array binding signal (z-score),[12],-0.259
same,glycan array binding signal (z-score),[13],-0.531
same,glycan array binding signal (z-score),[14],0.325
same,glycan array binding signal (z-score),[15],-0.394
same,glycan array binding signal (z-score),[16],-0.451
same,glycan array binding signal (z-score),[17],-0.43
same,glycan array binding signal (z-score),[18],-0.259
same,glycan array binding signal (z-score),[19],0.634
same,glycan array binding signal (z-score),[20],0.006
same,glycan array binding signal (z-score),[21],0.504
same,glycan array binding signal (z-score),[22],-0.46
same,glycan array binding signal (z-score),[23],0.103
same,glycan array binding signal (z-score),[24],0.562
same,glycan array binding signal (z-score),[25],-0.497
same,glycan array binding signal (z-score),[26],0.181
same,glycan array binding signal (z-score),[27],-0.416
same,glycan array binding signal (z-score),[28],-0.35
same,glycan array binding signal (z-score),[29],-0.214
same,glycan array binding signal (z-score),[30],-0.549
same,glycan array binding signal (z-score),[31],-0.15
same,glycan array binding signal (z-score),[32],-0.069
same,glycan array binding signal (z-score),[33],-0.255
same,glycan array binding signal (z-score),[34],-0.635
same,glycan array binding signal (z-score),[35],0.187
same,glycan array binding signal (z-score),[36],-0.343
same,glycan array binding signal (z-score),[37],-0.62

# Source: the supplement of paper PMC8728848
